{"source": "patent US8471041B2", "about": "(priority 2010, dated 2013)", "from_the_text": "The ability of the aqueous extraction to effectively remove DNAZ HBr from the ABDNAZ reaction mixture was unexpected because DNAZ HBr was expected to have limited solubility in water. […] The appreciable solubility of DNAZ HBr in water was surprising since a significant portion of DNAZ HBr includes non-polar, carbon and hydrogen moieties, which, conventionally, are not soluble in water. […] Furthermore, DNAZ HBr was not expected to be sufficiently soluble in water to enable aqueous extraction."}
{"smiles": "Br.CC(C)(C)N1CC([N+](=O)[O-])([N+](=O)[O-])C1", "note": "[DNAZ HBr]", "values": [{"measurement": "solubility in water relative to ABDNAZ (qualitative experiments)", "value": "significantly more soluble in water than the ABDNAZ"}]}
